Hit rate of the full screen: of about 110,000 compounds, about 230 (0.21%) showed an effect of 50% or more. The list shows a part of the results.
molecular target: DPAP1 (Plasmodium falciparum, UniProt Q8IIJ9); assay: primary screen, percent inhibition; read by cleavage of a fluorogenic dipeptide substrate; higher = more effect of the substance; design: species or system P. falciparum D10 trophozoite lysates; single well
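Further: 30 min substrate incubation versus DMSO and 10 µM JCP410 controls.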

Sequence of DPAP1 (Q8IIJ9 whole entry, looked up): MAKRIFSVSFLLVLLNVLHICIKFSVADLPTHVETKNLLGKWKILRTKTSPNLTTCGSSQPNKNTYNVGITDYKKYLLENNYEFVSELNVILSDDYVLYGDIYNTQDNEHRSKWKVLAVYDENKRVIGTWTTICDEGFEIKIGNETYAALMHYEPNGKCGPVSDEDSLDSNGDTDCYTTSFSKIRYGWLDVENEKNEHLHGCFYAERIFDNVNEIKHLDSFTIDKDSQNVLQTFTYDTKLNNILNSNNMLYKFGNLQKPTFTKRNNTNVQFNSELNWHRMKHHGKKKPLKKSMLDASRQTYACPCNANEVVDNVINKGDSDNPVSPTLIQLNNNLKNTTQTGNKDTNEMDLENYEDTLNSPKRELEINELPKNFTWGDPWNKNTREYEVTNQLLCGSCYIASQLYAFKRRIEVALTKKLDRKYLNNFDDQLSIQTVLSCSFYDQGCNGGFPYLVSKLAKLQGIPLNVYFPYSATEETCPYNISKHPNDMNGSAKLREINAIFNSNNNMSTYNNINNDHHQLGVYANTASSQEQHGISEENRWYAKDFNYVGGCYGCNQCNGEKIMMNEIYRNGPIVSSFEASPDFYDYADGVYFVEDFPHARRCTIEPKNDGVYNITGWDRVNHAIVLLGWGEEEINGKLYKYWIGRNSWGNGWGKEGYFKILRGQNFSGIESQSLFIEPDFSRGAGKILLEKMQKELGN

| SMILES | % Inhibition @ 10 uM |
| --- | --- |
| N#CC1=C(O)Oc2ccc(N)cc2C1c1ccccc1 (centres unmarked) | 2.45% |
| COC(=O)c1ccc2nc(Nc3nc4ccc(F)cc4s3)sc2c1 | -3.09% |
| CC(Nc1nn2nnnc2c2ccccc12)c1ccccc1 (centres unmarked) | -0.739% |
| COc1ccc(CNCc2ccc(C)cc2)cc1OC | -11.9% |
| Cc1cc(C)c(OCC(O)CN2CCN(Cc3ccc4c(c3)OCO4)CC2)c(C)c1 (centres unmarked) | -7.09% |
| CSc1ccc(C2C(C#N)=C(N)Oc3cc(N(C)C)ccc32)cc1 (centres unmarked) | -2.21% |
| COc1cc(C(=O)N(CCCN(C)C)c2nc3ccc(C)cc3s2)cc(OC)c1OC | 7.44% |
| Cc1ccc(C(=O)N/C(=C\c2ccco2)C(=O)N2CCN(c3ccccc3)CC2)cc1C | -2.88% |
| CC1C(C#N)=C(SCc2ccccc2)N=C2CC(C)(C)CC(O)=C21 (centres unmarked) | 55.4% |
| O=C(CS(=O)(=O)Cc1ccccc1)Nc1nc2ccccc2s1 | -2.83% |
| O=C(O)[C@H]1CCCC[C@H]1C(=O)Nc1ccc(S(=O)(=O)N2CCCC2)cc1 | 3.92% |
| O=C(Nc1nc(-c2ccc(Cl)cc2Cl)cs1)c1cccnc1 | 2.03% |
| CCCn1c2ccccc2n2c(C(=O)CC)c(-c3ccccc3)nc12 | -6.88% |
| OCCN1CCN(Cc2ccccc2C(F)(F)F)CC1 | 1.83% |
| Cn1c(-c2ccc(F)cc2)c[n+]2cc(Cl)ccc12 | 1.02% |
| CCOC(=O)Nc1ccc(S(=O)(=O)Nc2onc(C)c2C)cc1 | -3.37% |
| CC(=O)n1c2ccccc2c2[nH]c3c(c21)CCCC3 | 1.24% |
| O=C1C2C3C=CC(C3)C2C(=O)N1O (centres unmarked) | -1.4% |
| COc1ccc(N(CC(=O)NC2CCCC2)S(=O)(=O)c2ccc(NC(C)=O)cc2)cc1 | 2.78% |
| O=C(C1CCN(S(=O)(=O)c2ccc3nc(O)ccc3c2)CC1)N1CCCCCC1 | -5.03% |
| COc1ccc(NC(=O)Nc2ccc3c(c2)C(=O)OC3)cc1 | -1.86% |
| Cc1[nH]cnc1CN1CCN(c2ccc([N+](=O)[O-])cc2)CC1 | -0.132% |
| Cc1sc2ncnc(N3CCN(c4ccccc4F)CC3)c2c1C | -0.941% |
| COCCNC(=O)c1ccc(CN2CC(=O)N3CCCCC3C2=O)cc1 (centres unmarked) | 4.19% |
| CCN(CC)C(=O)/C(=C/c1ccccc1)NC(=O)c1ccc(Br)o1 | 0.777% |

| SMILES | % Inhibition @ 10 uM |
| --- | --- |
| CCS(=O)(=O)c1nc(S(=O)(=O)c2ccc(Cl)cc2)c(N2CC(C)CC(C)C2)s1 (centres unmarked) | 2.76% |
| COCCCNC(=O)Nc1cnc2ccccc2c1O | -1.07% |
| CCCNC(=O)C(NS(=O)(=O)c1cccc2nsnc12)c1ccccc1 (centres unmarked) | -3.23% |
| COc1ccc(S(=O)(=O)c2c(SC)nn(Cc3ccc(C)cc3)c2N(C(C)=O)C(C)=O)cc1 | -4.58% |
| COC(=O)c1ccsc1NC(=O)CN1CCN(Cc2ccc3c(c2)OCO3)CC1 | 0.895% |
| CC(NC(=O)c1cc(S(=O)(=O)N2CCCCC2)c[nH]1)c1ccc2c(c1)OCCO2 (centres unmarked) | 3.95% |
| Cc1oc(-c2ccc(Cl)cc2)nc1CS(=O)CC(=O)NC1CCCCCC1 (centres unmarked) | 2.37% |
| Oc1c2nc3ccccc3c-2ncn1CCc1ccc(Cl)cc1 | 1.64% |
| CC1=C(CCN(CCO)CCO)C(C)(C)CCC1 | 4.55% |
| CCOc1ccc(-c2cc(NC(=O)c3sc4nc5n(c(=O)c4c3C)CCCCC5)on2)cc1 | -4.42% |
| O=C(Nc1cccc(Cl)c1)c1scc2c1OCCO2 | 3.8% |
| O=C(NCc1ccccc1)Nc1nnc(N2CCCCC2)s1 | -4.68% |
| Cc1ccccc1CNC(=O)Cn1ccc2cc(S(=O)(=O)N3CCC(C)CC3)ccc21 | 3.47% |
| CCOC(=O)N1CCC(NC(=O)c2ccc(CS(=O)c3ccc(Cl)cc3)o2)CC1 (centres unmarked) | 0.458% |
| COc1ccc(C)cc1-n1nnc(-c2nc(-c3ccccc3F)no2)c1N | 4.48% |
| CC(C)(C)Nc1nc(Nc2cccc([N+](=O)[O-])c2)nc(NC(C)(C)C)n1 | 2.4% |
| O=C(CCCS(=O)(=O)c1nc(-c2cccs2)cc(C(F)(F)F)n1)NC1CCCCC1 | 23.4% |
| N#Cc1nn(-c2ccccc2)nc1N1CCCCC1 | -1.59% |
| CC1=NOC(=O)/C1=C/c1ccccc1OCc1ccccc1Cl | -2.14% |
| O=C(CCCCCNc1nc(S)nc2ccccc12)NCc1ccc2c(c1)OCO2 | 4.3% |
| CCCCCn1ncc(OC)c(OC)c1=O | 3.85% |
| COc1ccc(-n2c(-c3ccccc3)cn3c4c(=O)n(C)c(=O)n(C)c4nc23)cc1OC | -6.4% |
| Cn1c2c(c(=O)n(C)c1=O)CN(CCCN1CCOCC1)CN2 | 0.66% |
| O=c1cc(CSCc2ccccc2)nc2sc3c(n12)CCCC3 | 20.1% |
| Cc1cc(C(=O)O)c(-c2ccccc2)o1 | 0.392% |
